Data from the RNAGym collection of RNA variant scans (doi:10.1073/pnas.2313332121).
This sample is rich in variants without activity.

B1: TPR 5TU (parent)
chain: GGAUCUUCUCGAUCUAACAAAAAAGACAAAUCUGCCACAAAGCUUGAGAGCAUCUUCGGAUGCAGAGGCGGCAGCCUUCGGUGGCGCGAUAGCGCCAACGUUCUCAACUAUGACACGCAAAACGCGUGCUCCGUUGAAUGGAGUUUAUCAUG

Variants of: B1
Test: polymerase ribozyme fitness, log enrichment relative to wild type (log ratio); higher = more active; in vitro selection for triplet polymerase activity
Procedure, shortened: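 Mutant libraries were PCR-built and transcribed for each subunit of a heterodimeric triplet polymerase ribozyme and selected for one round in triplicate at −7 °C, frozen, before gel excision of extended constructs and streptavidin-bead capture. Input and output libraries were Illumina-sequenced, keeping genotypes with ≥10 input reads and ≥1 read per output. Fitness is a logarithmic ratio of genotype to wild-type enrichment, in base 2, using inverse-variance-weighted replicate averages.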

| Variant | polymerase ribozyme fitness (log ratio) |
| --- | --- |
| GGAUCUUCUCGAUCUAACAAAAAAGACAAAUCUGCCACAAAGCUUGAGAGCAUCUUCGGAUGCAGAGGCGGCAGCCUUCGGUGGCGCGUCAGCUCCAACGUUCUCAACUAUGAUACUCAAAACGCGUGCUCCUUUGAAUGGAGUUUAUCAUG [A89U U90C G94U C114U G117U G133U] | ≤ -4.2 |
| GGAUCUUCUCGAUCUAACAAAAAAGACAAAUCUGCCACAAAGCUUGAGAGCAUCUUCGGAUGCAGAGGCGGCAGCCUUCGGUGGCGCGUUAGCGCCAACGUUCUCAACGAUGACACGCAAAACGCGUGCUCCGUUGAAUGGAGUUUAUCAUG [A89U U109G] | -0.917 |
| GGAUCUUCUCGAUCUAACAAAAAAGACAAAUCUGCCACAAAGCUUGAGAGCAUCUUCGGAUGCAGAGGCGGCAGCCUUCGGUGGCGCGUUAGCGCCAACGUUCUCAACUAUGACACGCAAAACGCGUGCUCCGUUGAAUGGAGUUUAGCAUG [A89U U148G] | -3.92 |
| GGAUCUUCUCGAUCUAACAAAAAAGACAAAUCUGCCACAAAGCUUGAGAGCAUCUUCGGAUGCAGAGGCGGCAGCCUUCGGUGGCGCGAAGGCGCCAACGUUCUCAACUAUGACACGCAAAACGCGUGCUCCGUUGAAUGGAGUUUAUCAUG [U90A A91G] | ≤ -4.2 |
| GGAUCUUCUCGAUCUAACAAAAAAGACAAAUCUGCCACAAAGCUUGAGAGCAUCUUCGGAUGCAGAGGCGGCAGCCUUCGGUGGCGCGAAAGCGCCAACGUUCUCAACUAUGACACGCUAGACGCGUGCUCCGUUGAAUGGGGCUUAUCCUG [U90A A119U A121G A142G U144C A150C] | ≤ -4.2 |
| GGAUCUUCUCGAUCUAACAAAAAAGACAAAUCUGCCACAAAGCUUGAGAGCAUCUUCGGAUGCAGAGGCGGCAGCCUUCGGUGGCGCGAAAGGGCCAACGUUCUCAACUAUGACACGCAAAACGCGUGCUCCGUUGAAUGGAGUUUAUCAUG [U90A C93G] | ≤ -4.2 |
| GGAUCUUCUCGAUCUAACAAAAAAGACAAAUCUGCCACAAAGCUUGAGAGCAUCUUCGGAUGCAGAGGCGGCAGCCUUCGGUGGCGCGAAAGCGCGUACGUUCUUAGCUAUGACACGCAAAACGCGUGCUCCGUUGAAUGGAGUUUAUCAGG [U90A C96G A97U C105U A107G U151G] | ≤ -4.2 |
| GGAUCUUCUCGAUCUAACAAAAAAGACAAAUCUGCCACAAAGCUUGAGAGCAUCUUCGGAUGCAGAGGCGGCAGCCUUCGGUGGCGCGAAAGCGCCAAAGUUCUCAACCAUGACACGCAAAGCGGGUGCUCCGUUGAAUGGAGUUUAUCAUG [U90A C99A U109C A122G C125G] | ≤ -4.2 |
| GGAUCUUCUCGAUCUAACAAAAAAGACAAAUCUGCCACAAAGCUUGAGAGCAUCUUCGGAUGCAGAGGCGGCAGCCUUCGGUGGCGCGAAAGCGCCAACGUUCUCAACUAUGACACGCAAAACACGUGCUCCGUUGAAUGGAGUUUAUCAUG [U90A G124A] | ≤ -4.2 |
| GGAUCUUCUCGAUCUAACAAAAAAGACAAAUCUGCCACAAAGCUUGAGAGCAUCUUCGGAUGCAGAGGCGGCAGCCUUCGGUGGCGCGAAAGCGCCAACGUUCUCAACAAUGACACGCAAAACGCGUGCUCCGUUGAAUGGAGUUUAUCAUG [U90A U109A] | ≤ -4.2 |
| GGAUCUUCUCGAUCUAACAAAAAAGACAAAUCUGCCACAAAGCUUGAGAGCAUCUUCGGAUGCAGAGGCGGCAGCCUUCGGUGGCGCGAAAGCGCCAACGUUCUCAACUAUGACACGCAAAACGCGUGCUCCGAUGCAUGGAGUUUAUCAUG [U90A U134A A137C] | ≤ -4.2 |
| GGAUCUUCUCGAUCUAACAAAAAAGACAAAUCUGCCACAAAGCUUGAGAGCAUCUUCGGAUGCAGAGGCGGCAGCCUUCGGUGGCGCGACGGCGCCAACGUUCUCAACUAUGACACGCAAAACGCGUGCUCCGUUGAAUGGAGUUUAUCAUG [U90C A91G] | ≤ -4.2 |
| GGAUCUUCUCGAUCUAACAAAAAAGACAAAUCUGCCACAAAGCUUGAGAGCAUCUUCGGAUGCAGAGGCGGCAGCCUUCGGUGGCGCGACGGCGCCAACGUUCUCAACUAUGACACGCAUAACGCGUGAUCCGUUGAAUGCAGUUUAUCAUG [U90C A91G A120U C129A G141C] | ≤ -4.2 |
| GGAUCUUCUCGAUCUAACAAAAAAGACAAAUCUGCCACAAAGCUUGAGAGCAUCUUCGGAUGCAGAGGCGGCAGCCUUCGGUGGCGCGACAGCGCCAAGGUUCUCAACUAUGACACGCAAAACGCGUGCUCCGUUGAGUGGAGUUUAUCAUG [U90C C99G A138G] | ≤ -4.2 |
| GGAUCUUCUCGAUCUAACAAAAAAGACAAAUCUGCCACAAAGCUUGAGAGCAUCUUCGGAUGCAGAGGCGGCAGCCUUCGGUGGCGCGACAGCGCCAACGUUCUCAACUAUGACACGGAAAUCGCGUGCUCCGUUGAAUGGAGUUUAUCAUG [U90C C118G A122U] | ≤ -4.2 |
| GGAUCUUCUCGAUCUAACAAAAAAGACAAAUCUGCCACAAAGCUUGAGAGCAUCUUCGGAUGCAGAGGCGGCAGCCUUCGGUGGCGCGACAGCGCCAACGUUCUCAACUAUGACACGCAAAACGCGUGCUCCGUUGAAUGGAGUUUAGCAUG [U90C U148G] | ≤ -4.2 |
| GGAUCUUCUCGAUCUAACAAAAAAGACAAAUCUGCCACAAAGCUUGAGAGCAUCUUCGGAUGCAGAGGCGGCAGCCUUCGGUGGCGCGAGAGCGCCGACGUUCUCAACUAUGACACGCAAAACGCGUGCUCCGUUGAAUGGAGUUUAUCAUG [U90G A97G] | ≤ -4.2 |
| GGAUCUUCUCGAUCUAACAAAAAAGACAAAUCUGCCACAAAGCUUGAGAGCAUCUUCGGAUGCAGAGGCGGCAGCCUUCGGUGGCGCGAGAGCGCCAACGUUCUCCACUAUGACACGCAAAACGCGUGCUCCCUUGAAUGGAGUUUAUCAUG [U90G A106C G133C] | ≤ -4.2 |
| GGAUCUUCUCGAUCUAACAAAAAAGACAAAUCUGCCACAAAGCUUGAGAGCAUCUUCGGAUGCAGAGGCGGCAGCCUUCGGUGGCGCGAGAGCGCCAACGUUCUCAACUAUGACACGCUAAACGCGUGCGCCGUUUAAUGGAGUUUAUCAUG [U90G A119U U130G G136U] | ≤ -4.2 |
